Consider one molecule from US20040131615A1, “Methods for treating pain by administering a nerve growth factor antagonist and an opioid analgesic and compositions containing the same” (priority 2002, published 2004).

For this test, the target named is human NGF (Homo sapiens, UniProt P01138). Nature of the test: Binding affinity (KD) of anti-NGF antibody to human NGF; BIAcore surface plasmon resonance of Fab fragments described. The text has this:
One way of determining binding affinity of antibodies to NGF is by measuring affinity of monofunctional Fab fragments of the antibody. To obtain monofunctional Fab fragments, an antibody (for example, IgG) can be cleaved with papain or expressed recombinantly. The affinity of an anti-NGF Fab fragment of an antibody can be determined by surface plasmon resonance (BIAcore3000™ surface plasmon resonance (SPR) system, BIAcore, INC, Piscaway N.J.). CM5 chips can be activated with N-ethyl-N′-(3-dimethylaminopropyl)-carbodiinide hydrochloride (EDC) and N-hydroxysuccinimide (NHS) according to the supplier's instructions. Human NGF can be diluted into 10 mM sodium acetate pH 4.0 and injected over the activated chip at a concentration of 0.005 mg/mL. Using variable flow time across the individual chip channels, two ranges of antigen density can be achieved: 100-200 response units (RU) for detailed kinetic studies and 500-600 RU for screening assays. The chip can be blocked with ethanolamine. […] The concentrations of the Fab proteins are determined by ELISA and/or SDS-PAGE electrophoresis using a Fab of known concentration (as determined by amino acid analysis) as a standard. […] Equilibrium dissociation constant (KD) values can be calculated as koff/kon. […]

Sequence of human NGF (P01138 122-241): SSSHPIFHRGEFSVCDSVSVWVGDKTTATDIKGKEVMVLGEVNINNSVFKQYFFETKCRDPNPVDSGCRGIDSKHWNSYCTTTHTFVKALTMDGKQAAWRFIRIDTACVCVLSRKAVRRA

B1: E3: Humanized mouse anti-NGF monoclonal antibody; mutated human IgG2a heavy chain constant region, human kappa, variable regions SEQ ID NO:1 and 2 (antibody, chains of the INN, looked up)
heavy: QVQLQESGPGLVKPSETLSLTCTVSGFSLIGYDLNWIRQPPGKGLEWIGIIWGDGTTDYNSAVKSRVTISKDTSKNQFSLKLSSVTAADTAVYYCARGGYWYATSYYFDYWGQGTLVTVSSASTKGPSVFPLAPCSRSTSESTAALGCLVKDYFPEPVTVSWNSGALTSGVHTFPAVLQSSGLYSLSSVVTVPSSNFGTQTYTCNVDHKPSNTKVDKTVERKCCVECPPCPAPPVAGPSVFLFPPKPKDTLMISRTPEVTCVVVDVSHEDPEVQFNWYVDGVEVHNAKTKPREEQFNSTFRVVSVLTVVHQDWLNGKEYKCKVSNKGLPSSIEKTISKTKGQPREPQVYTLPPSREEMTKNQVSLTCLVKGFYPSDIAVEWESNGQPENNYKTTPPMLDSDGSFFLYSKLTVDKSRWQQGNVFSCSVMHEALHNHYTQKSLSLSPG
light: DIQMTQSPSSLSASVGDRVTITCRASQSISNNLNWYQQKPGKAPKLLIYYTSRFHSGVPSRFSGSGSGTDFTFTISSLQPEDIATYYCQQEHTLPYTFGQGTKLEIKRTVAAPSVFIFPPSDEQLKSGTASVVCLLNNFYPREAKVQWKVDNALQSGNSQESVTEQDSKDSTYSLSSTLTLSKADYEKHKVYACEVTHQGLSSPVTKSFNRGEC
A word on the Kd: it is the equilibrium constant for the complex coming apart. Higher therefore signals lower affinity. For the molecule B1, the Kd was about 0.07 nM.
